Measured values: publication PMC9911399, “Two distinct binding modes provide the RNA-binding protein RbFox with extraordinary sequence specificity”
Substitutions are numbered along the chain they refer to; changes in the protein carry UniProt numbers. This is one part of the list.

T1: RBFOX1 RRM (Homo sapiens, UniProt Q9NWB1 109-208)
T1 sequence: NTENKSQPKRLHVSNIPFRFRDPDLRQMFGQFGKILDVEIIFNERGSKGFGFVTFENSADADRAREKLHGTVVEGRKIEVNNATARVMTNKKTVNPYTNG

B1: AAUGGCU (DNA:RNA)
RNA: GGGAGACCGGAAUUCAGAUUGUCCAAUGGCUUUAAAUCCCGUCGUAGCCACCA
DNA 1: CAATCTGAATTCCGGTCTCCC
DNA 2: TGGTGGCTACGACGGGATT
B2: CUAGGAC (DNA:RNA)
RNA: B1 RNA with A25C, A26U, U27A, C30A, U31C
DNA 1: CAATCTGAATTCCGGTCTCCC
DNA 2: TGGTGGCTACGACGGGATT
B3: AUGAAAG (DNA:RNA)
RNA: B1 RNA with A26U, U27G, G28A, G29A, C30A, U31G
DNA 1: CAATCTGAATTCCGGTCTCCC
DNA 2: TGGTGGCTACGACGGGATT
B4: GUGCAUG (DNA:RNA)
RNA: GGGAGACCGGAAUUCAGAUUGUCCGUGCAUGUUAAAUCCCGUCGUAGCCACCA
DNA 1: CAATCTGAATTCCGGTCTCCC
DNA 2: TGGTGGCTACGACGGGATT
B5: CGUGGCG (DNA:RNA)
RNA: B1 RNA with A25C, A26G, U31G
DNA 1: CAATCTGAATTCCGGTCTCCC
DNA 2: TGGTGGCTACGACGGGATT
B6: AAGAAAC (DNA:RNA)
RNA: B1 RNA with U27G, G28A, G29A, C30A, U31C
DNA 1: CAATCTGAATTCCGGTCTCCC
DNA 2: TGGTGGCTACGACGGGATT
B7: GCGUCUA (DNA:RNA)
RNA: B4 RNA with U26C, C28U, A29C, G31A
DNA 1: CAATCTGAATTCCGGTCTCCC
DNA 2: TGGTGGCTACGACGGGATT
B8: UGAACCU (DNA:RNA)
RNA: B1 RNA with A25U, A26G, U27A, G28A, G29C
DNA 1: CAATCTGAATTCCGGTCTCCC
DNA 2: TGGTGGCTACGACGGGATT
B9: UGUGACU (DNA:RNA)
RNA: B1 RNA with A25U, A26G, G29A
DNA 1: CAATCTGAATTCCGGTCTCCC
DNA 2: TGGTGGCTACGACGGGATT
B10: UGGGCAA (DNA:RNA)
RNA: B1 RNA with A25U, A26G, U27G, G29C, C30A, U31A
DNA 1: CAATCTGAATTCCGGTCTCCC
DNA 2: TGGTGGCTACGACGGGATT
B11: CGUGUAG (DNA:RNA)
RNA: B1 RNA with A25C, A26G, G29U, C30A, U31G
DNA 1: CAATCTGAATTCCGGTCTCCC
DNA 2: TGGTGGCTACGACGGGATT
B12: GGCGCGA (DNA:RNA)
RNA: B1 RNA with A25G, A26G, U27C, G29C, C30G, U31A
DNA 1: CAATCTGAATTCCGGTCTCCC
DNA 2: TGGTGGCTACGACGGGATT
B13: AUGUCUG (DNA:RNA)
RNA: B4 RNA with G25A, C28U, A29C
DNA 1: CAATCTGAATTCCGGTCTCCC
DNA 2: TGGTGGCTACGACGGGATT
B14: AUGGCUU (DNA:RNA)
RNA: B1 RNA with A26U, U27G, G29C, C30U
DNA 1: CAATCTGAATTCCGGTCTCCC
DNA 2: TGGTGGCTACGACGGGATT
B15: UAUAGAU (DNA:RNA)
RNA: B1 RNA with A25U, G28A, C30A
DNA 1: CAATCTGAATTCCGGTCTCCC
DNA 2: TGGTGGCTACGACGGGATT
B16: AUCGAUA (DNA:RNA)
RNA: B4 RNA with G25A, G27C, C28G, G31A
DNA 1: CAATCTGAATTCCGGTCTCCC
DNA 2: TGGTGGCTACGACGGGATT
B17: UUGGUUU (DNA:RNA)
RNA: B4 RNA with G25U, C28G, A29U, G31U
DNA 1: CAATCTGAATTCCGGTCTCCC
DNA 2: TGGTGGCTACGACGGGATT
B18: GACCAGU (DNA:RNA)
RNA: B4 RNA with U26A, G27C, U30G, G31U
DNA 1: CAATCTGAATTCCGGTCTCCC
DNA 2: TGGTGGCTACGACGGGATT
B19: AAGUCGA (DNA:RNA)
RNA: B1 RNA with U27G, G28U, G29C, C30G, U31A
DNA 1: CAATCTGAATTCCGGTCTCCC
DNA 2: TGGTGGCTACGACGGGATT
B20: UUCAGUA (DNA:RNA)
RNA: B4 RNA with G25U, G27C, C28A, A29G, G31A
DNA 1: CAATCTGAATTCCGGTCTCCC
DNA 2: TGGTGGCTACGACGGGATT

Each binder was assayed against T1, RBFOX1 RRM (assay: EMSA; HiTS-Eq, 1 nM pool, 10 min; buffer printed only for the single-RNA assays: 10 mM Tris pH 7.5, 150 mM NaCl, 3.4 mM EDTA, 0.001% NP-40, 30 C). Settings: tags: His6 N-terminal (pET28a); label: 5' 32P.
Procedure, shortened: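 Purified RbFox RRM, wild type or mutant, was incubated for 10 min in 50 µL with 1 nM of a 5′-radiolabelled RNA pool carrying 7 randomized nucleotides, whose flanks were annealed to DNA oligonucleotides, over a series of increasing protein concentrations. Unbound RNA was resolved on 8% native PAGE, cut out, reverse-transcribed, barcoded by PCR and sequenced on an Illumina HiSeq 2500. Relative association constants were derived from changes in read counts for each RNA species versus the control reaction and normalised to the cognate motif.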

Binder | binding signal
B1 | 0.0109 KA relative to UGCAUGU
B2 | 0.00183 KA relative to UGCAUGU
B3 | 0.00866 KA relative to UGCAUGU
B4 | 1 KA relative to UGCAUGU
B5 | 0.0179 KA relative to UGCAUGU
B6 | 0.00334 KA relative to UGCAUGU
B7 | 0.00811 KA relative to UGCAUGU
B8 | 0.00633 KA relative to UGCAUGU
B9 | 0.0165 KA relative to UGCAUGU
B10 | 0.0304 KA relative to UGCAUGU
B11 | 0.01 KA relative to UGCAUGU
B12 | 0.0218 KA relative to UGCAUGU
B13 | 0.0158 KA relative to UGCAUGU
B14 | 0.0132 KA relative to UGCAUGU
B15 | 0.0118 KA relative to UGCAUGU
B16 | 0.00619 KA relative to UGCAUGU
B17 | 0.0272 KA relative to UGCAUGU
B18 | 0.00685 KA relative to UGCAUGU
B19 | 0.00655 KA relative to UGCAUGU
B20 | 0.00931 KA relative to UGCAUGU
